Reference: paper PMC9911399, “Two distinct binding modes provide the RNA-binding protein RbFox with extraordinary sequence specificity”
Changes are numbered by the printed parent chain; changes in the protein carry UniProt numbers. The list shows a part of the results.

T1: RBFOX1 RRM RbFoxmut (Fox-RRM*) (Homo sapiens, UniProt Q9NWB1 109-208, R118D;E147R;N151S;E152T)
T1 sequence: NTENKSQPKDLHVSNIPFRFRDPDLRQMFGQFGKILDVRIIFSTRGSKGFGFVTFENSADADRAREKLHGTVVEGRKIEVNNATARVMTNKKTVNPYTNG

B1: GUAGUAU (DNA:RNA)
RNA: GGGAGACCGGAAUUCAGAUUGUCCGUAGUAUUUAAAUCCCGUCGUAGCCACCA
DNA 1: CAATCTGAATTCCGGTCTCCC
DNA 2: TGGTGGCTACGACGGGATT
B2: AUCUUUC (DNA:RNA)
RNA: B1 RNA with G25A, A27C, G28U, A30U, U31C
DNA 1: CAATCTGAATTCCGGTCTCCC
DNA 2: TGGTGGCTACGACGGGATT
B3: AGGAUAU (DNA:RNA)
RNA: B1 RNA with G25A, U26G, A27G, G28A
DNA 1: CAATCTGAATTCCGGTCTCCC
DNA 2: TGGTGGCTACGACGGGATT
B4: GGGUUUG (DNA:RNA)
RNA: B1 RNA with U26G, A27G, G28U, A30U, U31G
DNA 1: CAATCTGAATTCCGGTCTCCC
DNA 2: TGGTGGCTACGACGGGATT
B5: GAUGGAU (DNA:RNA)
RNA: B1 RNA with U26A, A27U, U29G
DNA 1: CAATCTGAATTCCGGTCTCCC
DNA 2: TGGTGGCTACGACGGGATT
B6: UCCGGUC (DNA:RNA)
RNA: B1 RNA with G25U, U26C, A27C, U29G, A30U, U31C
DNA 1: CAATCTGAATTCCGGTCTCCC
DNA 2: TGGTGGCTACGACGGGATT
B7: AGGCCCC (DNA:RNA)
RNA: GGGAGACCGGAAUUCAGAUUGUCCAGGCCCCUUAAAUCCCGUCGUAGCCACCA
DNA 1: CAATCTGAATTCCGGTCTCCC
DNA 2: TGGTGGCTACGACGGGATT
B8: UCAAUUA (DNA:RNA)
RNA: B1 RNA with G25U, U26C, G28A, A30U, U31A
DNA 1: CAATCTGAATTCCGGTCTCCC
DNA 2: TGGTGGCTACGACGGGATT
B9: CGCUCUA (DNA:RNA)
RNA: B7 RNA with A25C, G27C, C28U, C30U, C31A
DNA 1: CAATCTGAATTCCGGTCTCCC
DNA 2: TGGTGGCTACGACGGGATT
B10: UACUACC (DNA:RNA)
RNA: B7 RNA with A25U, G26A, G27C, C28U, C29A
DNA 1: CAATCTGAATTCCGGTCTCCC
DNA 2: TGGTGGCTACGACGGGATT
B11: ACGCACU (DNA:RNA)
RNA: B7 RNA with G26C, C29A, C31U
DNA 1: CAATCTGAATTCCGGTCTCCC
DNA 2: TGGTGGCTACGACGGGATT
B12: CGGACCC (DNA:RNA)
RNA: B7 RNA with A25C, C28A
DNA 1: CAATCTGAATTCCGGTCTCCC
DNA 2: TGGTGGCTACGACGGGATT
B13: AAUCUAA (DNA:RNA)
RNA: B7 RNA with G26A, G27U, C29U, C30A, C31A
DNA 1: CAATCTGAATTCCGGTCTCCC
DNA 2: TGGTGGCTACGACGGGATT
B14: UGAGCCA (DNA:RNA)
RNA: B7 RNA with A25U, G27A, C28G, C31A
DNA 1: CAATCTGAATTCCGGTCTCCC
DNA 2: TGGTGGCTACGACGGGATT
B15: GAAAACA (DNA:RNA)
RNA: B1 RNA with U26A, G28A, U29A, A30C, U31A
DNA 1: CAATCTGAATTCCGGTCTCCC
DNA 2: TGGTGGCTACGACGGGATT
B16: GGGUCCU (DNA:RNA)
RNA: B7 RNA with A25G, C28U, C31U
DNA 1: CAATCTGAATTCCGGTCTCCC
DNA 2: TGGTGGCTACGACGGGATT
B17: CACAGUG (DNA:RNA)
RNA: GGGAGACCGGAAUUCAGAUUGUCCCACAGUGUUAAAUCCCGUCGUAGCCACCA
DNA 1: CAATCTGAATTCCGGTCTCCC
DNA 2: TGGTGGCTACGACGGGATT
B18: AACUGUA (DNA:RNA)
RNA: B17 RNA with C25A, A28U, G31A
DNA 1: CAATCTGAATTCCGGTCTCCC
DNA 2: TGGTGGCTACGACGGGATT
B19: CUCCUGG (DNA:RNA)
RNA: B17 RNA with A26U, A28C, G29U, U30G
DNA 1: CAATCTGAATTCCGGTCTCCC
DNA 2: TGGTGGCTACGACGGGATT
B20: AAACACG (DNA:RNA)
RNA: B7 RNA with G26A, G27A, C29A, C31G
DNA 1: CAATCTGAATTCCGGTCTCCC
DNA 2: TGGTGGCTACGACGGGATT
B21: GACCAUA (DNA:RNA)
RNA: B17 RNA with C25G, A28C, G29A, G31A
DNA 1: CAATCTGAATTCCGGTCTCCC
DNA 2: TGGTGGCTACGACGGGATT
B22: GCGGUUU (DNA:RNA)
RNA: B1 RNA with U26C, A27G, A30U
DNA 1: CAATCTGAATTCCGGTCTCCC
DNA 2: TGGTGGCTACGACGGGATT
B23: CGAUCUG (DNA:RNA)
RNA: B17 RNA with A26G, C27A, A28U, G29C
DNA 1: CAATCTGAATTCCGGTCTCCC
DNA 2: TGGTGGCTACGACGGGATT
B24: CCGUAUA (DNA:RNA)
RNA: B17 RNA with A26C, C27G, A28U, G29A, G31A
DNA 1: CAATCTGAATTCCGGTCTCCC
DNA 2: TGGTGGCTACGACGGGATT
B25: CGCUCUC (DNA:RNA)
RNA: B7 RNA with A25C, G27C, C28U, C30U
DNA 1: CAATCTGAATTCCGGTCTCCC
DNA 2: TGGTGGCTACGACGGGATT
B26: UCGUUGU (DNA:RNA)
RNA: B1 RNA with G25U, U26C, A27G, G28U, A30G
DNA 1: CAATCTGAATTCCGGTCTCCC
DNA 2: TGGTGGCTACGACGGGATT
B27: UCAAGGA (DNA:RNA)
RNA: B17 RNA with C25U, A26C, C27A, U30G, G31A
DNA 1: CAATCTGAATTCCGGTCTCCC
DNA 2: TGGTGGCTACGACGGGATT
B28: CUUAAUG (DNA:RNA)
RNA: B17 RNA with A26U, C27U, G29A
DNA 1: CAATCTGAATTCCGGTCTCCC
DNA 2: TGGTGGCTACGACGGGATT
B29: GAUUGUG (DNA:RNA)
RNA: B17 RNA with C25G, C27U, A28U
DNA 1: CAATCTGAATTCCGGTCTCCC
DNA 2: TGGTGGCTACGACGGGATT
B30: CCACAGA (DNA:RNA)
RNA: B7 RNA with A25C, G26C, G27A, C29A, C30G, C31A
DNA 1: CAATCTGAATTCCGGTCTCCC
DNA 2: TGGTGGCTACGACGGGATT
B31: UCACAUU (DNA:RNA)
RNA: B1 RNA with G25U, U26C, G28C, U29A, A30U
DNA 1: CAATCTGAATTCCGGTCTCCC
DNA 2: TGGTGGCTACGACGGGATT

target: T1, RBFOX1 RRM RbFoxmut (Fox-RRM*); experiment: EMSA; HiTS-Eq, 1 nM pool, 10 min; buffer printed only for the single-RNA assays: 10 mM Tris pH 7.5, 150 mM NaCl, 3.4 mM EDTA, 0.001% NP-40, 30 C; details: tags: His6 N-terminal (pET28a); label: 5' 32P
Summary of the method: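 A pool of RNA with 7 randomized nucleotides, 5′-radiolabelled and with DNA-annealed flanks, was equilibrated at 1 nM for 10 min in 50 µL with purified RbFox RRM, wild type or mutant, across increasing protein concentrations. Free RNA was separated by 8% native PAGE, excised, reverse-transcribed, barcoded by PCR and sequenced. Relative association constants were obtained from read-count changes of each RNA species versus the control reaction and normalised to the cognate motif.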

Binder | binding signal
B1 | 0.184 KA relative to UGCAUGU
B2 | 0.0643 KA relative to UGCAUGU
B3 | 0.106 KA relative to UGCAUGU
B4 | 0.741 KA relative to UGCAUGU
B5 | 0.0887 KA relative to UGCAUGU
B6 | 0.101 KA relative to UGCAUGU
B7 | 0.057 KA relative to UGCAUGU
B8 | 0.098 KA relative to UGCAUGU
B9 | 0.0927 KA relative to UGCAUGU
B10 | 0.0724 KA relative to UGCAUGU
B11 | 0.0999 KA relative to UGCAUGU
B12 | 0.0933 KA relative to UGCAUGU
B13 | 0.0586 KA relative to UGCAUGU
B14 | 0.116 KA relative to UGCAUGU
B15 | 0.0743 KA relative to UGCAUGU
B16 | 0.116 KA relative to UGCAUGU

Binder | binding signal
B17 | 0.102 KA relative to UGCAUGU
B18 | 0.169 KA relative to UGCAUGU
B19 | 0.105 KA relative to UGCAUGU
B20 | 0.0961 KA relative to UGCAUGU
B21 | 0.0749 KA relative to UGCAUGU
B22 | 0.0954 KA relative to UGCAUGU
B23 | 0.076 KA relative to UGCAUGU
B24 | 0.104 KA relative to UGCAUGU
B25 | 0.0644 KA relative to UGCAUGU
B26 | 0.157 KA relative to UGCAUGU
B27 | 0.0635 KA relative to UGCAUGU
B28 | 0.126 KA relative to UGCAUGU
B29 | 0.249 KA relative to UGCAUGU
B30 | 0.0901 KA relative to UGCAUGU
B31 | 0.0691 KA relative to UGCAUGU
